Here are results for 9 variants from the supplement of paper PMC12217912.

Sequences and labels used below:
B1: TEV protease; numbered along this chain (parent)
chain: MGESLFKGPRDYNPISSSICHLTNESDGHTTSLYGIGFGPFIITNKHLFRRNNGTLVVQSLHGVFKVKDTTTLQQHLVDGRDMIIIRMPKDFPPFPQKLKFREPQREERICLVTTNFQTKSMSSMVSDTSCTFPSGDGIFWKHWIQTKDGQCGSPLVSTRDGFIVGIHSASNFTNTNNYFTSVPKNFMELLTNQEAQQWVSGWRLNADSVLWGGHKVFMVKPEEPFQPVKEATQL

In this assay the parent is B1. The assay is described as follows: raw area under fraction-flipped curve 0-4 h after induction (AUC4h, not background-subtracted), DNA-recorder readout of cleavage of the substrate (dimensionless); higher = more cleavage of the substrate by the protease variant. The settings on record: temperature: 34 °C; time window: 0-4 h after rhamnose induction. The protocol: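 In vivo DNA recorder in E. coli TOP10(DE3) ΔrhaA at 34 °C. Each TEVp single-site mutant (parent TEVp 0) is paired with a single-site variant of the 7-mer TEVs (canonical ENLYFQ|S). The substrate sits between flexible linkers in a Bxb1-sfGFP-TEVs-SsrA fusion, so cleavage stabilises Bxb1 and speeds flipping of a recombination array, read by NGS. The value is the raw area under the fraction-flipped curve over 0-4 h after rhamnose induction (AUC4h), with ≥20 reads per time point. It is not background-subtracted; inactive controls average about 0.047.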

Some of the results follow. Sequences were assembled here from the parent chain. Values near 0.05 are background.
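Note: Bxb1 expression induced with 0.2% (w/v) L-rhamnose at OD600 near 0.5, cultures sampled hourly, flipped fraction per protease–substrate barcode pair counted by paired-end Illumina sequencing.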

In the case of MGECLFKGPRDYNPISSSICHLTNESDGHTTSLYGIGFGPFIITNKHLFRRNNGTLVVQSLHGVFKVKDTTTLQQHLVDGRDMIIIRMPKDFPPFPQKLKFREPQREERICLVTTNFQTKSMSSMVSDTSCTFPSGDGIFWKHWIQTKDGQCGSPLVSTRDGFIVGIHSASNFTNTNNYFTSVPKNFMELLTNQEAQQWVSGWRLNADSVLWGGHKVFMVKPEEPFQPVKEATQL [S4C], the “area with substrate ENLAFQS” value is 0.0798, the “area with substrate ENLCFQS” value came to 0.068, the “area with substrate ENLDFQS” value was determined as 0.053 and the “area with substrate ENLEFQS” value was found to be 0.0609. In addition, the “area with substrate ENLFFQS” value amounted to 0.0797, the “area with substrate ENLGFQS” value amounted to 0.0527, the “area with substrate ENLHFQS” value amounted to 0.0584 and the “area with substrate ENLKFQS” value amounted to 0.0766. In addition, the “area with substrate ENLLFQS” value turned out to be 0.0818, the “area with substrate ENLMFQS” value came to 0.0742, the “area with substrate ENLNFQS” value stood at 0.0514 and the “area with substrate ENLPFQS” value was determined as 0.0587. The “area with substrate ENLRFQS” value worked out at 0.0692, the “area with substrate ENLSFQS” value stood at 0.0745, the “area with substrate ENLVFQS” value was 0.074 and the “area with substrate ENLWFQS” value amounted to 0.0688.

MGMSLFKGPRDYNPISSSICHLTNESDGHTTSLYGIGFGPFIITNKHLFRRNNGTLVVQSLHGVFKVKDTTTLQQHLVDGRDMIIIRMPKDFPPFPQKLKFREPQREERICLVTTNFQTKSMSSMVSDTSCTFPSGDGIFWKHWIQTKDGQCGSPLVSTRDGFIVGIHSASNFTNTNNYFTSVPKNFMELLTNQEAQQWVSGWRLNADSVLWGGHKVFMVKPEEPFQPVKEATQL [E3M]: the “area with substrate ENLAFQS” value turned out to be 0.0756, the “area with substrate ENLDFQS” value was 0.0519, the “area with substrate ENLEFQS” value was 0.0531 and the “area with substrate ENLFFQS” value worked out at 0.102. Further, the “area with substrate ENLHFQS” value is 0.0614, the “area with substrate ENLIFQS” value came to 0.122, the “area with substrate ENLKFQS” value is 0.0718 and the “area with substrate ENLLFQS” value came to 0.0684. In addition, the “area with substrate ENLNFQS” value was 0.0563, the “area with substrate ENLPFQS” value came out at 0.0615, the “area with substrate ENLQFQS” value was determined as 0.077 and the “area with substrate ENLRFQS” value is 0.0717. Moreover, the “area with substrate ENLSFQS” value was 0.0629 and the “area with substrate ENLWFQS” value turned out to be 0.0629.

With MGHSLFKGPRDYNPISSSICHLTNESDGHTTSLYGIGFGPFIITNKHLFRRNNGTLVVQSLHGVFKVKDTTTLQQHLVDGRDMIIIRMPKDFPPFPQKLKFREPQREERICLVTTNFQTKSMSSMVSDTSCTFPSGDGIFWKHWIQTKDGQCGSPLVSTRDGFIVGIHSASNFTNTNNYFTSVPKNFMELLTNQEAQQWVSGWRLNADSVLWGGHKVFMVKPEEPFQPVKEATQL [E3H], the “area with substrate ENLAFQS” value was found to be 0.0628, the “area with substrate ENLCFQS” value was found to be 0.0746, the “area with substrate ENLDFQS” value is 0.0754 and the “area with substrate ENLEFQS” value amounted to 0.0648. Besides, the “area with substrate ENLFFQS” value is 0.0775, the “area with substrate ENLGFQS” value came out at 0.0709, the “area with substrate ENLHFQS” value amounted to 0.0619 and the “area with substrate ENLKFQS” value was 0.0842. The “area with substrate ENLLFQS” value turned out to be 0.0961, the “area with substrate ENLNFQS” value was 0.0647, the “area with substrate ENLPFQS” value was found to be 0.056 and the “area with substrate ENLQFQS” value came to 0.0631. The “area with substrate ENLSFQS” value was determined as 0.0754, the “area with substrate ENLTFQS” value amounted to 0.0834 and the “area with substrate ENLVFQS” value is 0.0467.

Take MGESLFKGPRDLNPISSSICHLTNESDGHTTSLYGIGFGPFIITNKHLFRRNNGTLVVQSLHGVFKVKDTTTLQQHLVDGRDMIIIRMPKDFPPFPQKLKFREPQREERICLVTTNFQTKSMSSMVSDTSCTFPSGDGIFWKHWIQTKDGQCGSPLVSTRDGFIVGIHSASNFTNTNNYFTSVPKNFMELLTNQEAQQWVSGWRLNADSVLWGGHKVFMVKPEEPFQPVKEATQL [Y12L]: the “area with substrate ENLAFQS” value was determined as 0.0658, the “area with substrate ENLCFQS” value came out at 0.0671, the “area with substrate ENLDFQS” value came to 0.0634 and the “area with substrate ENLEFQS” value was 0.0706. In addition, the “area with substrate ENLFFQS” value is 0.0853, the “area with substrate ENLGFQS” value came out at 0.0927, the “area with substrate ENLHFQS” value came to 0.0723 and the “area with substrate ENLIFQS” value turned out to be 0.114. For the same variant, the “area with substrate ENLKFQS” value stood at 0.0765, the “area with substrate ENLLFQS” value worked out at 0.0798, the “area with substrate ENLMFQS” value is 0.0801 and the “area with substrate ENLNFQS” value was 0.0664. Further, the “area with substrate ENLPFQS” value was determined as 0.0621, the “area with substrate ENLQFQS” value was 0.067, the “area with substrate ENLRFQS” value stood at 0.0803 and the “area with substrate ENLSFQS” value was 0.0433. Further, the “area with substrate ENLVFQS” value was 0.0752.

With MGESLFKGPRVYNPISSSICHLTNESDGHTTSLYGIGFGPFIITNKHLFRRNNGTLVVQSLHGVFKVKDTTTLQQHLVDGRDMIIIRMPKDFPPFPQKLKFREPQREERICLVTTNFQTKSMSSMVSDTSCTFPSGDGIFWKHWIQTKDGQCGSPLVSTRDGFIVGIHSASNFTNTNNYFTSVPKNFMELLTNQEAQQWVSGWRLNADSVLWGGHKVFMVKPEEPFQPVKEATQL [D11V], the “area with substrate ENLAFQS” value is 0.0709, the “area with substrate ENLDFQS” value stood at 0.0699, the “area with substrate ENLEFQS” value is 0.0666 and the “area with substrate ENLFFQS” value amounted to 0.0968. Besides, the “area with substrate ENLGFQS” value is 0.0696, the “area with substrate ENLHFQS” value was determined as 0.0693, the “area with substrate ENLKFQS” value is 0.0785 and the “area with substrate ENLLFQS” value was found to be 0.0743. Besides, the “area with substrate ENLNFQS” value amounted to 0.0692, the “area with substrate ENLPFQS” value stood at 0.0631, the “area with substrate ENLQFQS” value was 0.0412 and the “area with substrate ENLRFQS” value was determined as 0.0706. Further, the “area with substrate ENLSFQS” value turned out to be 0.073, the “area with substrate ENLTFQS” value stood at 0.0698, the “area with substrate ENLVFQS” value amounted to 0.0766 and the “area with substrate ENLWFQS” value was determined as 0.0712.

Turning to MGESLFKGPRDYLPISSSICHLTNESDGHTTSLYGIGFGPFIITNKHLFRRNNGTLVVQSLHGVFKVKDTTTLQQHLVDGRDMIIIRMPKDFPPFPQKLKFREPQREERICLVTTNFQTKSMSSMVSDTSCTFPSGDGIFWKHWIQTKDGQCGSPLVSTRDGFIVGIHSASNFTNTNNYFTSVPKNFMELLTNQEAQQWVSGWRLNADSVLWGGHKVFMVKPEEPFQPVKEATQL [N13L], the “area with substrate ENLAFQS” value was found to be 0.0672, the “area with substrate ENLCFQS” value amounted to 0.0646, the “area with substrate ENLDFQS” value stood at 0.062 and the “area with substrate ENLEFQS” value stood at 0.0685. Moreover, the “area with substrate ENLFFQS” value came to 0.0896, the “area with substrate ENLHFQS” value came to 0.0669, the “area with substrate ENLKFQS” value was 0.0778 and the “area with substrate ENLLFQS” value turned out to be 0.0884. The “area with substrate ENLMFQS” value amounted to 0.102, the “area with substrate ENLNFQS” value was 0.063, the “area with substrate ENLPFQS” value worked out at 0.0606 and the “area with substrate ENLRFQS” value was 0.0834. For the same variant, the “area with substrate ENLSFQS” value worked out at 0.0556, the “area with substrate ENLVFQS” value was found to be 0.0978 and the “area with substrate ENLWFQS” value is 0.057.

In the case of MGESLFKGPRDYPPISSSICHLTNESDGHTTSLYGIGFGPFIITNKHLFRRNNGTLVVQSLHGVFKVKDTTTLQQHLVDGRDMIIIRMPKDFPPFPQKLKFREPQREERICLVTTNFQTKSMSSMVSDTSCTFPSGDGIFWKHWIQTKDGQCGSPLVSTRDGFIVGIHSASNFTNTNNYFTSVPKNFMELLTNQEAQQWVSGWRLNADSVLWGGHKVFMVKPEEPFQPVKEATQL [N13P], the “area with substrate ENLAFQS” value is 0.0535, the “area with substrate ENLCFQS” value was determined as 0.056, the “area with substrate ENLDFQS” value was determined as 0.0633 and the “area with substrate ENLEFQS” value came to 0.0631. Further, the “area with substrate ENLFFQS” value came out at 0.0991, the “area with substrate ENLGFQS” value worked out at 0.0666, the “area with substrate ENLHFQS” value was determined as 0.0808 and the “area with substrate ENLKFQS” value is 0.0679. Further, the “area with substrate ENLLFQS” value was 0.069, the “area with substrate ENLMFQS” value is 0.0869, the “area with substrate ENLNFQS” value was determined as 0.0666 and the “area with substrate ENLPFQS” value was 0.0699. Moreover, the “area with substrate ENLQFQS” value was 0.0695, the “area with substrate ENLRFQS” value stood at 0.0716, the “area with substrate ENLSFQS” value was 0.0715 and the “area with substrate ENLTFQS” value was 0.0757. Further, the “area with substrate ENLWFQS” value came to 0.0622.

MGESLFKGPRDYEPISSSICHLTNESDGHTTSLYGIGFGPFIITNKHLFRRNNGTLVVQSLHGVFKVKDTTTLQQHLVDGRDMIIIRMPKDFPPFPQKLKFREPQREERICLVTTNFQTKSMSSMVSDTSCTFPSGDGIFWKHWIQTKDGQCGSPLVSTRDGFIVGIHSASNFTNTNNYFTSVPKNFMELLTNQEAQQWVSGWRLNADSVLWGGHKVFMVKPEEPFQPVKEATQL [N13E]: the “area with substrate ENLAFQS” value turned out to be 0.063, the “area with substrate ENLDFQS” value was determined as 0.0652, the “area with substrate ENLEFQS” value is 0.0604 and the “area with substrate ENLFFQS” value stood at 0.0828. Besides, the “area with substrate ENLGFQS” value stood at 0.0341, the “area with substrate ENLHFQS” value came out at 0.0586, the “area with substrate ENLIFQS” value stood at 0.0597 and the “area with substrate ENLKFQS” value was determined as 0.0894. For the same variant, the “area with substrate ENLLFQS” value turned out to be 0.101, the “area with substrate ENLMFQS” value came to 0.106, the “area with substrate ENLNFQS” value stood at 0.0666 and the “area with substrate ENLPFQS” value was determined as 0.0615. Moreover, the “area with substrate ENLRFQS” value was determined as 0.0732, the “area with substrate ENLSFQS” value worked out at 0.0625 and the “area with substrate ENLVFQS” value was 0.0885.

For the variant MGESLFDGPRDYNPISSSICHLTNESDGHTTSLYGIGFGPFIITNKHLFRRNNGTLVVQSLHGVFKVKDTTTLQQHLVDGRDMIIIRMPKDFPPFPQKLKFREPQREERICLVTTNFQTKSMSSMVSDTSCTFPSGDGIFWKHWIQTKDGQCGSPLVSTRDGFIVGIHSASNFTNTNNYFTSVPKNFMELLTNQEAQQWVSGWRLNADSVLWGGHKVFMVKPEEPFQPVKEATQL [K7D], the “area with substrate ENLAFQS” value is 0.0732, the “area with substrate ENLDFQS” value turned out to be 0.0308, the “area with substrate ENLEFQS” value was determined as 0.0701 and the “area with substrate ENLGFQS” value was determined as 0.0628. Besides, the “area with substrate ENLHFQS” value was 0.0567, the “area with substrate ENLKFQS” value turned out to be 0.0617, the “area with substrate ENLLFQS” value was 0.0678 and the “area with substrate ENLNFQS” value amounted to 0.0632. Besides, the “area with substrate ENLPFQS” value was 0.0601, the “area with substrate ENLQFQS” value is 0.0547, the “area with substrate ENLSFQS” value came to 0.0697 and the “area with substrate ENLTFQS” value is 0.0817.
